Results reported in the antibiotic and cytotoxicity screens of Wong et al. (2023).
The other results are listed elsewhere or left out.

What was measured:
HSkMC = human skeletal muscle cells; experiment: cytotoxicity call (relative viability < 0.9); details: 10 µM
HepG2 = experiment: cytotoxicity call (relative viability < 0.9); details: 10 µM
S. aureus RN4220 = experiment: growth inhibition call (relative growth <= 0.2); details: 50 µM

| SMILES | cytotoxicity call (HSkMC) | cytotoxicity call (HepG2) | growth inhibition call (S. aureus RN4220) |
| --- | --- | --- | --- |
| CC(C)(CN)CNc1ccc([N+](=O)[O-])c2cccnc12 | inactive | active | inactive |
| N[C@H](CO)Cc1ccccc1 | inactive | inactive | inactive |
| CCCCCCCCC(=O)NCc1ccc(O)c(OC)c1 | inactive | inactive | inactive |
| C[C@H]1CN([C@@H](C)CO)C(=O)CCCn2cc(nn2)CO[C@H]1CN(C)C(=O)Oc1cccc2ccccc12 | inactive | inactive | inactive |
| CSC1=NN1c1cc(C)nc(N)n1 | inactive | inactive | inactive |
| Oc1c(Cl)c(Cl)c(Cl)c(Cl)c1Cl | inactive | inactive | active |
| Cc1cccc(C)c1NC(=O)CN1CCCC1=O | inactive | inactive | inactive |
| C[N+](C)(C)C[C@H]1CCC[C@@H]1O | inactive | inactive | inactive |
| CC12C=CC(=O)C=C1CCC1C2CCC2(C)C(=O)CCC12 (centres undefined) | inactive | inactive | inactive |
| CCn1nc(-c2cccnc2)nc2c(=O)n(C)c(=O)nc1-2 | active | active | active |
| C[C@@H](N)Cc1c[nH]c2ccc(OCc3cccs3)cc12 | inactive | inactive | inactive |
| CNCc1cccnc1 | inactive | active | inactive |
| [O-][n+]1ccccc1[S][Zn][S]c1cccc[n+]1[O-] | active | active | active |
| NCC1(c2ccc(Cl)cc2)CC1 | inactive | inactive | inactive |
| NC1=NC(=O)C2(CCNCC2)N1 | inactive | inactive | inactive |
| CN(C)C(=O)Oc1ccc[n+](C)c1 | inactive | inactive | inactive |
| C/C=C(/C)C(=O)O[C@H]1CC[C@@]2(C)[C@@H]3CC[C@H]4[C@]5(O)C[C@H](O)[C@@]6(O)[C@@H](CN7C[C@@H](C)CC[C@H]7[C@@]6(C)O)[C@]5(O)C[C@@]42O[C@@]13O | inactive | inactive | inactive |
| C[C@H](N)Cc1cnc[nH]1 | inactive | inactive | inactive |
| NC(N)=NOCC[C@H](N)C(=O)O | inactive | inactive | inactive |
| C1C[C@@H]2C[C@@H]2N1 | inactive | inactive | inactive |
| CCOP(=S)(OCC)SCSP(=S)(OCC)OCC | inactive | inactive | inactive |

| SMILES | cytotoxicity call (HSkMC) | cytotoxicity call (HepG2) | growth inhibition call (S. aureus RN4220) |
| --- | --- | --- | --- |
| O=C(NC[C@H]1CC[C@]2(CNCCOC2)O1)c1ccnnc1 | inactive | inactive | inactive |
| C1COC2(CCOCC2)CN1 | inactive | inactive | inactive |
| CN(C)C(=O)CN1C[C@H]2CON[C@@H]2C1 | inactive | inactive | inactive |
| C#CC(C)(O)CC (centres undefined) | inactive | inactive | inactive |
| CC(=O)N1CCCC[C@]12CCNC2 | inactive | inactive | inactive |
| O=C1NCN(c2ccccc2)C12CCNCC2 | inactive | inactive | inactive |
| N#Cc1c(Cl)c(Cl)c(Cl)c(C#N)c1Cl | active | active | inactive |
| CN(C)C(=O)CCC(=O)N1C[C@H]2C[C@@H]1CN2 | inactive | inactive | inactive |
| CCCC[C@@H](C)[C@@H](OC(=O)C[C@@H](CC(=O)O)C(=O)O)[C@H](C[C@@H](C)C[C@H](O)CCCC[C@@H](O)C[C@H](O)[C@H](C)N)OC(=O)C[C@@H](CC(=O)O)C(=O)O | inactive | inactive | inactive |
| CC(C)N1CCO[C@H]2CN(C(=O)N(C)C)C[C@@H]21 | inactive | inactive | inactive |
| CCCCCCCCCCCCCC(=O)O[C@@H]1[C@@H](C)[C@@]2(O)[C@@H](C=C(CO)C[C@]3(O)C(=O)C(C)=C[C@@H]23)[C@@H]2C(C)(C)[C@]12OC(C)=O | active | active | inactive |
| COc1ccc(C(=O)N2CCCC2=O)cc1 | inactive | inactive | inactive |
| COc1cc(CCN)ccc1O | inactive | inactive | inactive |
| CNC(=O)CN1CCOCC12CCN(c1cc(OC)ncn1)CC2 | inactive | inactive | inactive |
| COc1ccc(OC(=O)N(C)C[C@H]2OCc3ccccc3-c3c(n(C)c4ccccc34)C(=O)N([C@@H](C)CO)C[C@@H]2C)cc1 | inactive | inactive | inactive |
| N#CC[N+]12CCN(CC1)CC2 | inactive | inactive | inactive |
| COC(=O)C[C@](O)(CCC(C)(C)O)C(=O)O[C@@H]1C(OC)=C[C@]23CCCN2CCc2cc4c(cc2[C@H]13)OCO4 | active | active | inactive |
| COC(=O)[C@H]1[C@H](CO)[C@H]2Cn3c(ccc(C4=CCCC4)c3=O)[C@@H]1N2S(=O)(=O)c1cn(C)cn1 | inactive | inactive | inactive |
| C[C@@H]1CN([C@H](C)CO)C(=O)CCCn2nncc2CO[C@H]1CN(C)C(=O)Oc1cccc2ccccc12 | inactive | inactive | inactive |
| Cl.Oc1noc2c1CCNC2 | inactive | inactive | inactive |
| COC(=O)[C@H]1CNC(=O)C1 | inactive | inactive | inactive |

| SMILES | cytotoxicity call (HSkMC) | cytotoxicity call (HepG2) | growth inhibition call (S. aureus RN4220) |
| --- | --- | --- | --- |
| C=CC=CCC1=C(C)C(OC(=O)C2C(C=C(C)C)C2(C)C)CC1=O (centres undefined) | inactive | inactive | inactive |
| C[C@@]12NC(=O)CN1CCc1ccccc12 | inactive | inactive | inactive |
| CC12CCC3C(CCC4CC(O)CCC43C)C1CCC2=O (centres undefined) | inactive | inactive | inactive |
| O=C1[O][SbH]23[O]C(=O)C([O]2)C2[O][SbH]4([O]C(=O)C([O]4)C1[O]3)[O]C2=O | inactive | active | inactive |
| CN1C(=O)[C@]23CC4=CC=C[C@H](O)[C@H]4N2C(=O)[C@@]1(CO)SS3 | active | active | inactive |
| c1cn(C[C@H]2CC[C@H]3NCCO[C@@H]23)cn1 | inactive | inactive | inactive |
| NCCO.NCCO.O[AsH]O[AsH]O (centres undefined) | inactive | active | inactive |
| COc1ccc(O)c(C(C)(C)C)c1 | inactive | inactive | inactive |
| C=C(CCCCCCCCCCCCCCCC)OOC[C@@H](COP(=O)(ON)O[C@@H]1[C@H](O)[C@H](O)[C@@H](OP(=O)(O)ON)[C@H](OP(=O)(O)ON)[C@H]1O)OOC(=C)CC/C=C/C/C=C/C/C=C/C/C=C/CCCCC (some centres undefined) | inactive | active | inactive |
| C[C@@H]1CN([C@@H](C)CO)C(=O)CCCn2cc(nn2)CO[C@@H]1CN(C)C(=O)Oc1ccc2ccccc2c1 | inactive | inactive | inactive |
| CN1C2CCC1CC(OC(=O)C(CO)c1ccccc1)C2 (centres undefined) | inactive | inactive | inactive |
| O=[N+]([O-])OC1COC2C(O)COC12 (centres undefined) | inactive | inactive | inactive |
| CC(=O)OC1CCC2(C)C(=CCC3C4CCC(=O)C4(C)CCC32)C1 (centres undefined) | inactive | inactive | inactive |
| O=C(O)[C@H]1C[C@H]2CCCCN2C1 | inactive | inactive | inactive |
| CC1OC(OC2C(O)C(O)C(O)C(O)C2O)C(N)CC1NC(=N)C(=O)O.Cl (centres undefined) | inactive | inactive | inactive |
| c1cc(N2CCNCC2)ccn1 | inactive | inactive | inactive |
| CCOC(OCC)P(=O)(O)CCCN | inactive | inactive | inactive |
| O.O.O.O=C([O-])C1[O][Sb]2[O]C(=O)C([O]2)C(C(=O)[O-])[O][Sb]2[O]C(=O)C1[O]2.[K+].[K+] (centres undefined) | inactive | active | inactive |
| O=P1(NCCCl)OCCCN1CCCl (centres undefined) | inactive | inactive | inactive |
| CC(C)(O)C(Cl)(Cl)Cl | inactive | inactive | inactive |
| O[C@H]1[C@H]2[C@H](O)CCCN2C[C@H]1O | inactive | inactive | inactive |

| SMILES | cytotoxicity call (HSkMC) | cytotoxicity call (HepG2) | growth inhibition call (S. aureus RN4220) |
| --- | --- | --- | --- |
| CC12CCC(O)CC1CCC1C2CC(O)C2(C)C(C3=CC(=O)OC3)CCC12O (centres undefined) | active | active | inactive |
| CC(C)=CCCC1(C)C=Cc2c(O)c3c(c(CC=C(C)C)c2O1)OC12C(=CC4CC1C(C)(C)OC2(CC=C(C)C(=O)O)C4O)C3=O (centres undefined) | active | inactive | inactive |
| NCCc1nccs1 | inactive | inactive | inactive |
| C[C@@H]1CN([C@H](C)CO)C(=O)CCCn2nncc2CO[C@@H]1CN(C)C(=O)Oc1cccc2ccccc12 | inactive | inactive | inactive |
| CC(C)(C)NCC(O)c1ccccc1Cl.Cl (centres undefined) | inactive | inactive | inactive |
| O=C(O)Cc1cccnc1C(=O)O | inactive | inactive | inactive |
| [N-]=[N+]=CC(=O)OCC(N)C(=O)O (centres undefined) | inactive | active | inactive |
| CCOCC(=O)N1CC[C@H]2CNC[C@H]21 | inactive | inactive | inactive |
| C=CCSSCC=C | inactive | inactive | inactive |
| COC(=O)[C@]1(Cc2ccccc2CN=[N+]=[N-])N=C(c2ccc(OCCCO)cc2)O[C@@H]1c1ccccc1CN=[N+]=[N-] | inactive | active | inactive |
| COCCCNC(=O)[C@@]1(Cc2ccccc2CN=[N+]=[N-])N=C(c2ccc(OCCCO)cc2)O[C@H]1c1ccccc1N=[N+]=[N-] | inactive | inactive | inactive |
| Cc1ccc2c(CCN)c(C)n(C)c2c1 | inactive | active | inactive |
| CN(C)C(=S)SSC(=S)N(C)C | inactive | active | active |
| CN[C@@H]1[C@@H](O)[C@@H](O[C@@H]2[C@@H](O)[C@H](O[C@H]3O[C@H](CN)CC[C@H]3N)[C@@H](N)C[C@H]2N)OC[C@]1(C)O.CN[C@@H]1[C@@H](O)[C@@H](O[C@@H]2[C@@H](O)[C@H](O[C@H]3O[C@H]([C@@H](C)N)CC[C@H]3N)[C@@H](N)C[C@H]2N)OC[C@]1(C)O.CN[C@@H]1[C@@H](O)[C@@H](O[C@@H]2[C@@H](O)[C@H](O[C@H]3O[C@H]([C@@H](C)NC)CC[C@H]3N)[C@@H](N)C[C@H]2N)OC[C@]1(C)O | inactive | inactive | inactive |
| O=C1COC2(CNC2)CN1 | inactive | inactive | inactive |
| O=C1C2CCN(CC2)C1(CO)CO | inactive | inactive | inactive |
| N#Cc1cnccn1 | inactive | inactive | inactive |
| C[C@H]1O[C@H](C[N+](C)(C)C)C[C@@H]1O | inactive | inactive | inactive |
| CCC1CN2CCC1CC2C(O)c1ccnc2ccc(OC)cc12 (centres undefined) | inactive | active | inactive |
| N#C[C@@]12[C@H]3CC=C[C@@H]1N2CC3 (some centres undefined) | inactive | inactive | inactive |
